Experimental findings from the RNAGym collection of RNA variant scans (doi:10.7554/elife.90254) are described below.

The source gives no read counts; variants with many changes may rest on few reads.

First the molecules themselves.
B1: LINE1-mini (parent)
chain: GGCAGAGCUCAACACAGCGUGGCAAAGUGGCUGUGGCUAGACUGCC

Variants of B1 are the subject of the data set. Nature of the data set: self-cleavage, relative activity (ratio to wild type); higher = more cleavage; in vitro, sequencing; the parent is a self-cleaving ribozyme.
Take A12C U20A A24G: the self-cleavage came out at 0.02.
Take A12G C13U G29A G30A: the self-cleavage turned out to be 0.03.
To C13A G29C G35C U38C C42U belongs 0.02; to A12U A14U A26G G29U G40A, 0.1; to C13A G19U C37U, 0.07.
For A12C U38C C46G the value was 0.01; for C13A G19U G35A U38A C46G, 0.12.
Turning to A12G A16U G19A G22U, the self-cleavage is 0.04.
To A12U A16C C23A C42G belongs 0.06.
To A12U G22U A26U G29U U43C belongs 0.13; to A12U G30C U38G, 0.02.
Regarding A12G C13U A16C C31G, the self-cleavage worked out at 0.05.
With A12U C18A G40C U43A, the self-cleavage was determined as 0.07.
To A12U G40C G44A belongs 0; to A12G G22C G35C A39G, 0.02.
For C13A C15A G19U the value was 0.06; for A12G G19A U43A, 0; for A12G C18A G19U A39U U43A, 0.03.
Regarding A12G A25G U34A G40A, the self-cleavage worked out at 0.01.
As for A12U C23U C37U, the self-cleavage was determined as 0.
To A12U A14U G22U U32A U34C C42A belongs 0.03; to A12C U32A G33A, 0.01; to C13A G33A G35C G44U C46U, 0.02.
To A12G U20G G35C G36U U38G A39C belongs 0; to C13A G19A C23G U28G, 0.01; to A12U C18A C37A A41C, 0.
For A12G C13G U20A G21U A24G G36U the value was 0.2; for A12G G27U G33C G40A C46U, 0.04; for A12U U20G G22A A41G G44A, 0.03.
As to A12U C13A G17U U20A G22U G40A, the self-cleavage was found to be 0.03.
For A12G C15A U28C C31G the value was 0.02.
C13A C15G C45U: the self-cleavage amounted to 0.03.
Take C13A C15U G22A A25C: the self-cleavage came out at 0.12.
Consider A12G G17A C45G, for which the self-cleavage was 0.02.
On to A12C U38G G44A C45G, for which the self-cleavage was 0.
For A12G G22A G27C U28G the value was 0.02; for C13A A25U C45U, 0.18.
For C13A C15A A25C G29U the value was 0.22.
On to A12C G36U A39U, for which the self-cleavage stood at 0.02.
For C13A G27C U38C the value was 0.01.
For C13A A14G U20A C42G the value was 0.05.
Regarding A12U A14U C15A G21U G30A, the self-cleavage is 0.04.
As to C13A G30C G33C, the self-cleavage is 0.01.
Consider A12G C15A C45A, for which the self-cleavage was 0.03.
Turning to A12G A16G U38A C42A, the self-cleavage was 0.09.
Consider A12U A16U U20G, for which the self-cleavage stood at 0.03.
For C13A C15U U32A A39C A41G the value was 0.26.
As to C13A A16G G21U, the self-cleavage came out at 0.02.
For C13A G21C A24U U28A the value was 0.04.
Turning to C13A G17A U32C, the self-cleavage was 0.02.
Take C13A A14U G29U C45A: the self-cleavage came out at 0.02.
For A12U U28G G29A G33C, the self-cleavage came to 0.02.
For A12U C18G G21A G30A, the self-cleavage is 1.21.
In the case of A12U A25C C45G, the self-cleavage was 0.1.
For C13A C31A G44U the value was 0.03; for A12G G19U C31A U38G, 0.02; for A12G G30C C45A, 0.04.
As for A12U G33U A41G, the self-cleavage amounted to 0.01.
Take A12G G40C C42U: the self-cleavage was 0.06.
To C13A C31G C37U belongs 0.06; to C13A C18U C23A U28A C31A, 0.04; to C13A A16U C46U, 0.09.
To A12G U28A C37A belongs 0.07; to A12U G21C U28C U34G, 0.02; to A12U G19U G22C G29C G33A, 0.02.
For A12U A24G C45U the value was 0.24.
Consider A12U G21U U34C G36U C46A, for which the self-cleavage is 0.02.
A12G G19A G40A: the self-cleavage came to 0.04.
To A12G C13U G27U U28C belongs 0.02; to A12G C13U A14U, 0.03; to C13A A14C G33U, 0.03.
Regarding A12G C23G A25G, the self-cleavage is 0.01.
For C13A C23A G36A G44A the value was 0.49; for A12G C23G A25C U34A, 0.04.
With A12G A14U A16U G27U U28G, the self-cleavage amounted to 0.01.
For A12G A16U U43A the value was 0.01; for A12G C15G G33A C37A, 0.02.
For A12U U28A U34G G44C the value was 0.03; for A12C U20C G22C, 0; for C13A A14C C42G, 0.04.
For the variant C13A A14G G21A G27A G35C, the self-cleavage is 0.27.
Turning to A12C U20A A26C U32G G33C U34C G36C, the self-cleavage was determined as 0.
In the case of A12U C13A A14U A26C U32A G36C U38A A39G C46U, the self-cleavage is 0.03.
For A12U G17C G29U, the self-cleavage stood at 0.
Consider A12C G40A A41U G44A, for which the self-cleavage worked out at 0.01.
To C13A G19C C31G G44A belongs 0.03.
With A12U G21U G33U, the self-cleavage was 0.04.
A12U C23A G29U G33C G40A: the self-cleavage amounted to 0.03.
For A12U C13A A14U G22U G30U U43C the value was 0.04; for A12U C37G U38C, 0.01.
With A12G G22A G33C C42G C46A, the self-cleavage came to 0.
For C13A C15A A25C, the self-cleavage came to 0.08.
For C13A C37A U38C, the self-cleavage was determined as 0.04.
To A12U G17C G27U belongs 0.01; to A12U G30A G40A, 0.08; to A12U C31G G40A, 0.03.
As to C13A G17A G22C, the self-cleavage worked out at 0.
For A12U U20C G36A the value was 0.02; for A12G C13G G30U U38A, 0.06.
To A12U G17C G22A C31G G36C G40U belongs 0; to C13A C31U U34C G36C, 0.1.
A12U C18G C46U: the self-cleavage was 0.05.
For C13A A16G C23U C46G the value was 0.02.
Regarding A12C G30A C31A, the self-cleavage turned out to be 0.07.
For A12C G35C A41G the value was 0.02.
For A12G A25C U43C the value was 0.05.
To A12G G29U U32C G35A belongs 0.14.
A12U C15A G29A G35A G44U: the self-cleavage is 0.08.
To C13A A24G A25U G35U belongs 0.06; to A12G G21U C23G U32C, 0.02; to C13A G29U G30A C37U, 0.03.
Turning to A12U G17A U20G G21A U32C, the self-cleavage was found to be 0.
For A12U U34C C46A the value was 0.02; for A12G C15G G19A G22C, 0.02.
To A12U A16G G30U belongs 0.15.
For C13A C31A G36U the value was 0.23.
As for A12G G29A G40U G44U, the self-cleavage is 0.01.
To A12U C15U U28G G36A belongs 0.
For A12U G30C C31A the value was 0.09; for C13A A24U G29U, 0.08; for C13A G19U U20A C46U, 0.05.
As to C13A G17C U32G C42A, the self-cleavage was 0.1.
For A12G C18G C42U G44C the value was 0.04; for C13A C15A G19A U20C G36A G40C, 0.11; for A12U C31A G36U, 0.07.
As to A12G G21A C23G C31G, the self-cleavage turned out to be 0.01.
For C13A G17C G36A G40C the value was 0.06; for C13A C18U G30C, 0.05; for C13A C15G C42A, 0.01.
To C13A A14G A25G G29A belongs 0.07; to A12U A14U G29U G30A U34G G35U A41G, 0.02.
To A12U C18A A25U U32A belongs 0.03; to C13A C18A G21A, 0.03.
For the variant A12U G22U C23A G36C C37A, the self-cleavage amounted to 0.02.
To A12G A16C U20A U38A belongs 0.01.
As to A12U C42G G44A, the self-cleavage was determined as 0.03.
To C13A C15U A24U U38A belongs 0.03.
As to A12G G21U G29U G30A, the self-cleavage was 0.03.
As to C13A A16C C45G, the self-cleavage came to 0.07.
To A12U G44A C46A belongs 0.07.
To C13A G30U C46A belongs 0.05; to C13A G30U C46U, 0.09; to A12G G21U A24G U38G, 0.02.
Regarding A12C U20G C37A G44U, the self-cleavage was 0.01.
Regarding A12U C18G G19C, the self-cleavage is 0.82.
To C13A A14G U32A G33C U34G belongs 0.01.
On to A12U A41C C45U, for which the self-cleavage was 0.05.
To A12G G30U C31U G35C G40U belongs 0.04; to A12C G21U G29U G35U G36A, 0.28; to A12U U20G G35U, 0.03.
Turning to C13A G27A U28A G29U C31G, the self-cleavage was 0.22.
In the case of C13A G19C G36U, the self-cleavage was determined as 0.05.
For C13A C15U G19U A24G C45U the value was 0.08; for C13A A26G G33C, 0.03; for C13A A16C G27C G35C, 0.15.
To A12U G17C G40C C46A belongs 0.01.
Take C13A C23G G27A U32A U38C: the self-cleavage was 0.02.
For A12G G17C C18U G22A G29A U34A the value was 0; for C13A C23U A41U, 0.38.
To A12G G21C G22A G29U G30C belongs 0.02; to A12C G35U G40U C45A, 0.06.
For A12U U32A G35A the value was 0.02.
Turning to A12U G30U G40A U43C, the self-cleavage turned out to be 0.04.
To C13A G21A G27C A39C belongs 0.06; to A12G G29U C46U, 0.03.
For A12G C37A U38G G40U the value was 0.03.
To A12C G30A U38G G40A belongs 0.01.
